# This is one part of the list.
# B1: FaeGac (Escherichia coli) (protein)
# chain: WMTGDFNGSVDIGGSITADDYRQKWEWKVGTGLNGFGNVLNDLTNGGTKLTITVTGNKPILLGRTKEAFATPVTGGVDGIPHIAFTDYEGASVVLRKPDGETNKNGLAYFVLPMKNAGGTKVGSVKVNASYAGVLGRGGVTSADGELLSLFADGLSSIFYGGLPRGSELSAGSAAAARTKLFGSLSRDDILGQIQRVNANVTSLVDVAGSYRENMEYTDGNVVSAAYALGIANGQTIEATFNQAVTTSTQWSAPLNVAITYY
# How the values were obtained:
# Test in all cases: glycan array binding signal (z-score within array); higher = stronger binding
# Conditions in all cases: glycan notation: IUPAC condensed, linker removed
# [1] = biological target: Gal(b1-4)Glc
# Outline: (§1)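 The Consortium for Functional Glycomics database supplied 3228 glycan arrays, of which those lacking an available protein sequence were dropped. The binding signal, a within-array Z-score, was averaged across arrays of the same protein sequence and across linkers. Negative scores can be read as non-binding.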
# [2] = biological target: Gal(b1-4)Glc6S
# Outline: as §1
# [3] = biological target: Gal(b1-4)GlcNAc
# Outline: as §1
# [4] = biological target: Gal(b1-4)GlcNAc(b1-2)Man(a1-3)[Gal(b1-4)GlcNAc(b1-2)Man(a1-6)]Man(b1-4)GlcNAc(b1-4)GlcNAc
# Outline: as §1
# [5] = biological target: Gal(b1-4)GlcNAc(b1-3)Gal(b1-4)Glc
# Outline: as §1
# [6] = biological target: Gal(b1-4)GlcNAc(b1-3)Gal(b1-4)GlcNAc
# Outline: as §1
# [7] = biological target: Gal(b1-4)GlcNAc(b1-3)Gal(b1-4)GlcNAc(b1-3)Gal(b1-4)GlcNAc
# Outline: as §1
# [8] = biological target: Gal(b1-4)GlcNAc(b1-3)Gal(b1-4)[Fuc(a1-3)]GlcNAc(b1-3)Gal(b1-4)[Fuc(a1-3)]GlcNAc
# Outline: as §1
# [9] = biological target: Gal(b1-4)GlcNAc(b1-3)GalNAc
# Outline: as §1
# [10] = biological target: Gal(b1-4)GlcNAc(b1-3)[Gal(b1-4)GlcNAc(b1-6)]GalNAc
# Outline: as §1
# [11] = biological target: Gal(b1-4)GlcNAc(b1-6)Gal(b1-4)GlcNAc(b1-6)GalNAc
# Outline: as §1
# [12] = biological target: Gal(b1-4)GlcNAc(b1-6)GalNAc
# Outline: as §1
# [13] = biological target: Gal(b1-4)GlcNAc(b1-6)[Gal(b1-3)]GalNAc
# Outline: as §1
# [14] = biological target: Gal3S(b1-3)GalNAc
# Outline: as §1
# [15] = biological target: Gal3S(b1-3)GlcNAc
# Outline: as §1
# [16] = biological target: Gal3S(b1-3)[Fuc(a1-4)]GlcNAc
# Outline: as §1
# [17] = biological target: Gal3S(b1-4)Glc
# Outline: as §1
# [18] = biological target: Gal3S(b1-4)Glc6S
# Outline: as §1
# [19] = biological target: Gal3S(b1-4)GlcNAc
# Outline: as §1
# [20] = biological target: Gal3S(b1-4)GlcNAc6S
# Outline: as §1
# [21] = biological target: Gal3S6S(b1-4)GlcNAc
# Outline: as §1
# [22] = biological target: Gal3S6S(b1-4)GlcNAc6S
# Outline: as §1
# [23] = biological target: Gal4S(b1-4)GlcNAc
# Outline: as §1
# [24] = biological target: Gal4S6S(b1-4)GlcNAc
# Outline: as §1
# [25] = biological target: Gal6S(b1-4)Glc
# Outline: as §1
# [26] = biological target: Gal6S(b1-4)Glc6S
# Outline: as §1
# [27] = biological target: Gal6S(b1-4)GlcNAc
# Outline: as §1
# [28] = biological target: GalNAc(a1-3)Gal
# Outline: as §1
# [29] = biological target: GalNAc(a1-3)GalNAc
# Outline: as §1
# [30] = biological target: GalNAc(b1-3)Gal(a1-4)Gal(b1-4)GlcNAc
# Outline: as §1
# [31] = biological target: GalNAc(b1-3)GalNAc
# Outline: as §1
# [32] = biological target: GalNAc(b1-4)GlcNAc
# Outline: as §1
# [33] = biological target: Glc(a1-4)Glc
# Outline: as §1
# [34] = biological target: Glc(a1-6)Glc(a1-6)Glc
# Outline: as §1
# [35] = biological target: Glc(b1-4)Glc
# Outline: as §1
# [36] = biological target: Glc(b1-6)Glc
# Outline: as §1
# [37] = biological target: GlcA(b1-3)Gal
# Outline: as §1
# [38] = biological target: GlcA(b1-6)Gal
# Outline: as §1
binder,measurement,setting,value
B1,glycan array binding signal (z-score),[1],-0.314
same,glycan array binding signal (z-score),[2],0.51
same,glycan array binding signal (z-score),[3],-0.831
same,glycan array binding signal (z-score),[4],-0.593
same,glycan array binding signal (z-score),[5],0.509
same,glycan array binding signal (z-score),[6],-0.084
same,glycan array binding signal (z-score),[7],-0.738
same,glycan array binding signal (z-score),[8],0.628
same,glycan array binding signal (z-score),[9],0.035
same,glycan array binding signal (z-score),[10],-0.533
same,glycan array binding signal (z-score),[11],0.135
same,glycan array binding signal (z-score),[12],-0.547
same,glycan array binding signal (z-score),[13],1.21
same,glycan array binding signal (z-score),[14],-0.354
same,glycan array binding signal (z-score),[15],-0.299
same,glycan array binding signal (z-score),[16],-0.531
same,glycan array binding signal (z-score),[17],-0.656
same,glycan array binding signal (z-score),[18],-0.177
same,glycan array binding signal (z-score),[19],0.555
same,glycan array binding signal (z-score),[20],2.17
same,glycan array binding signal (z-score),[21],-0.035
same,glycan array binding signal (z-score),[22],1.17
same,glycan array binding signal (z-score),[23],0.313
same,glycan array binding signal (z-score),[24],1.04
same,glycan array binding signal (z-score),[25],-0.652
same,glycan array binding signal (z-score),[26],1.8
same,glycan array binding signal (z-score),[27],-0.534
same,glycan array binding signal (z-score),[28],1.5
same,glycan array binding signal (z-score),[29],0.689
same,glycan array binding signal (z-score),[30],-0.817
same,glycan array binding signal (z-score),[31],1.2
same,glycan array binding signal (z-score),[32],-0.387
same,glycan array binding signal (z-score),[33],5.96
same,glycan array binding signal (z-score),[34],6.71
same,glycan array binding signal (z-score),[35],4.43
same,glycan array binding signal (z-score),[36],-0.21
same,glycan array binding signal (z-score),[37],-0.705
same,glycan array binding signal (z-score),[38],0.602

# From the supplement of paper PMC8728848
